Reference: PubChem BioAssay AID1347073 (National Center for Advancing Translational Sciences (NCATS), 2019)
About 200 (0.44%) of roughly 45,000 compounds were called active. Roughly 7% stayed inconclusive and do not appear here. Calls follow the shape of the dose curve; as a rule, active = well fitted activation curve with a large enough effect; inconclusive = small, poorly fitted or top-dose-only effect; inactive = no such curve, though single readings can be large or run the other way. The list shows a part of the results.

Experiment: qHTS of TDP-43 Inhibitors: NCGC Sytravon Library Screen; also: 0% is about no effect; nearly all actives have a fitted effect of over 55% in size
Details: yeast TDP-43 toxicity rescue, BacTiter-Glo growth, 24 h; series mostly up to 46.1 µM; growth rescue (activation): at the top concentration
How it was run: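 TDP-43-expressing yeast, pregrown in raffinose, seeded at OD600 0.02 in galactose medium with compound for 24 hr at 30 deg C. Growth read by BacTiter-Glo luminescence, so rescue of toxicity appears as activation.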

SMILES | growth rescue (activation)
CCn1c(C(C)C)n[nH]c1=S | inactive: 1.48%
CCc1nnc(NC(=O)c2cc3c(s2)CCCCC3)s1 | inactive: 13.2%
COc1cccc(C(=O)NCCNC(=O)c2cnccn2)c1 | inactive: -16.5%
COC(=O)[C@H](C)NC(=O)Nc1cccc(Br)c1 | inactive: -6.08%
CC(NC(=O)c1ccccc1Cl)C(=O)NCc1cccs1 (stereo not drawn) | inactive: 29.9%
Cc1cccc(C)c1OCc1cc(C(=O)N(C)Cc2cc(C3CC3)n[nH]2)no1 | inactive: 20.8%
CC(=O)c1ccc(Nc2nc(C(N)C3CCCCC3)cs2)cc1 (stereo not drawn) | inactive: 6.19%
COc1ccccc1NC(=O)C(=O)N1CCCC1 | inactive: 23%
COc1ccc(NC(=O)N2CCCC2C(=O)Nc2ccc(C)cc2C)cc1 (stereo not drawn) | inactive: 9.67%
Cn1c(/C=C/c2ccc([N+](=O)[O-])o2)nc2ccccc2c1=O | inactive: -92.8%
O=C(CSCc1ccc(Cl)cc1)Nc1ccccc1O | inactive: 25.4%
CC(C(=O)NN=C(c1ccccc1)c1ccccc1)N1CCCC1 (stereo not drawn) | inactive: 5.55%
CCC(CC)C(=O)N(C)c1c(C)nc2c(OCC=C(C)C)cccn12 | inactive: 12.6%
Cn1c2ccccc2c(=O)c2c(=O)n(C3CCCCCC3)c(C3CCCCC3)nc21 | inactive: -3.95%
OCc1ccccc1-c1cnc2cccnn12 | inactive: -1.57%
CCOc1ccc(CCNC(=O)c2[nH]c(C)c(C(C)=O)c2C)cc1OCC | inactive: 12.2%
CC(C)CNC(=O)C1(C)CCCCCN1Cc1ccccc1-c1ccccc1 (stereo not drawn) | inactive: -7.37%
CCOC(=O)Cc1csc(NC(=O)Cc2ccc(Cl)cc2)n1 | inactive: 27.5%
COc1ccc(-c2cc(C(=O)NCC3CCCCC3)[nH]n2)c(C)c1 | inactive: -3.53%
CC(C)c1ccc(CC(=O)N2CCC2(C)C(=O)NS(=O)(=O)c2cccc(OC(F)F)c2)cc1 (stereo not drawn) | inactive: 12.7%
CC1CN(S(=O)(=O)c2cccc(C(F)(F)F)c2)C(C)N1C(=O)N1CCOCC1 (stereo not drawn) | inactive: 7.42%
COc1ccc(C(=O)N/C(=C/c2cccs2)C(=O)NC(C)(C)C)cc1OC | inactive: 6.98%

SMILES | growth rescue (activation)
CCOC(=O)C1CCN(CCC(=O)Nc2ccc(F)cc2)CC1 | inactive: 5.31%
COc1cc(C(=O)OCC(=O)Nc2ccc(S(=O)(=O)N3CCCC3)cc2)cc(OC)c1OC | inactive: 0.348%
CCC(=O)NC(=S)Nc1ccc(NC(=O)COc2ccc(Cl)c(C)c2)cc1 | inactive: 24.4%
O=C(c1ccc(Cl)cc1)N(Cc1ccccc1F)N1C(=O)CCCC1=O | inactive: -8.34%
Cc1ccc(-c2nnc3c4ccccc4c(C)nn23)cc1NC(=O)c1ccccc1Cl | inactive: 6%
COc1ccc(N2CC(C(=O)OCC(=O)Nc3ccccc3C)CC2=O)cc1 (stereo not drawn) | inactive: -0.144%
O=[N+]([O-])c1ccc(/C=C/c2ccc3ccccc3n2)cc1 | inactive: 13%
Cc1ccc(OCC(=O)N2N=C(c3cccnc3)CC2(O)C(F)(F)F)cc1C (stereo not drawn) | inactive: -20.1%
CCOc1ccc(NC(=O)CSc2nnnn2CC(=O)O)cc1 | inactive: -7.17%
COc1ccc(NC(=O)CN2CCC(Cc3ccccc3)CC2)cc1S(=O)(=O)N1CCOCC1 | inactive: -21.5%
COC(=O)CNc1nc(Cl)nc(Nc2ccc(C)cc2)n1 | inactive: -14.1%
O=C(CCC(=O)NCCO)NCCO | inactive: 7.48%
O=C(NCCOc1ccccc1F)c1cc(F)c(F)cc1Cl | inactive: 13.8%
COc1cc(Cn2c3ccc(NC(=O)CCc4ccccc4)cc3c(=O)n2C)ccc1F | inactive: -8.38%
Cc1cc(C)c(O)c(-c2cc(C(=O)Nc3cccnc3)[nH]n2)c1 | inactive: -11%
COc1cc(C2SCC(=O)N2CCN2CCCCC2)ccc1O (stereo not drawn) | inactive: -7.85%
CC1(C(=O)NS(=O)(=O)c2ccc(C#N)cc2)CCN1C(=O)Cc1ccc(-c2ccccc2)cc1 (stereo not drawn) | inactive: 13.9%
CCCCSc1oc(-c2ccco2)nc1S(=O)(=O)c1ccccc1 | inactive: 23.3%
CCOC(=O)N1CCN(C(=O)CN(C)S(=O)(=O)c2ccc3c(c2)c(=O)n(C)c(=O)n3C)CC1 | inactive: 7.77%
O=C(O)CC(C(=O)OCCOc1ccccc1)N1CCOCC1 (stereo not drawn) | inactive: 29%
Cc1cc(N2C(=O)C(O)=C(C(=O)c3ccc(C)o3)C2c2cccc(Oc3ccccc3)c2)no1 (stereo not drawn) | inactive: -3%
O=C(C1=NN[C@@H]2C(=O)N(c3cccc(C(F)(F)F)c3)C(=O)[C@H]12)C(c1ccccc1)c1ccccc1 | inactive: 15.5%

SMILES | growth rescue (activation)
Cc1ccc(C(=O)c2cc([N+](=O)[O-])ccc2N2CCCCC2)cc1 | inactive: 7.63%
O=C(N/N=C/c1ccncc1)c1ccccc1 | inactive: -30.3%
CC1CCCN(C(=O)CN2C(=O)NC(C)(c3ccc4ccccc4c3)C2=O)C1 (stereo not drawn) | inactive: 11.1%
Cc1ccc(-c2nn(-c3cccc(F)c3)cc2CNCCc2ccncc2)o1 | inactive: 0.369%
CCNC(=O)NC(=O)COC(=O)C1CSC2(C)CCC(=O)N12 (stereo not drawn) | inactive: -3.77%
O=C(COC(=O)c1ccc(Br)cc1)NCc1ccc(F)cc1 | inactive: 28.6%
Cc1ccc(S(=O)(=O)N(C)C)cc1NC(=S)NCCCn1ccnc1 | inactive: 2.72%
CC(C)C(=O)OC/C(O)=C(\C#N)c1nc2ccccc2[nH]1 | inactive: -3.68%
COc1ccc(N2CCN(C(=O)C3CCN(C(=O)c4cccc(Cl)c4)CC3)CC2)cc1 | inactive: 5%
CN(Cc1ccccc1)C(=O)c1ccccc1C(=O)O | inactive: 10.7%
CN1CCN(C(=O)CN(c2ccccc2)S(=O)(=O)N(C)C)CC1 | inactive: 7.37%
COc1ccc(CCNC(=O)C2=COCCO2)cc1 | inactive: 26.9%
O=C(CCS(=O)(=O)Cc1ccccc1F)NCc1ccccc1Cl | inactive: 1.57%
CC(=O)Nc1ccc(NC(=O)COC(=O)c2c3c(nc4ccccc24)CCN(Cc2ccccc2)C3)cc1 | inactive: 6.6%
CCC(=O)N1CCC(C)(C(=O)Nc2nccc3ccccc23)C1 (stereo not drawn) | inactive: 10.1%
O=C(NCc1cc(Cl)cc(Cl)c1)c1csc([C@@H]2C[C@H](O)[C@@H](CO)O2)n1 | inactive: 7.67%
Cc1ccc(CCN2CC(C(=O)NCCN3CCCCCC3)CC2=O)cc1 (stereo not drawn) | inactive: 12.4%
Cn1c(SCc2ccc([N+](=O)[O-])cc2)nnc1-c1cccnc1 | inactive: -3.87%
O=S(=O)(NC(=NCc1ccccc1)c1ccccc1)c1ccccc1 | inactive: 7.67%
CC(=O)c1ccc(N(CC(=O)NC2CCS(=O)(=O)C2)S(=O)(=O)c2ccc(C)cc2)cc1 (stereo not drawn) | inactive: 9.4%
CS(=O)(=O)c1ccc2sc(NC(=O)c3cc4ccccc4o3)nc2c1 | inactive: -0.832%
Cn1c(C(=O)O)cnc1Sc1ncc(C(F)(F)F)cc1Cl | inactive: 5.99%

SMILES | growth rescue (activation)
CCCC1C(c2ccco2)NC(c2ccco2)CC1(C)O (stereo not drawn) | inactive: 2.96%
CCn1c(SCC(=O)Nc2ccc(N3CCOCC3)cc2)nnc1-c1ccco1 | inactive: 8.37%
Cc1cc(Nc2ccccc2)n(-c2ccc(C(=O)O)cc2)n1 | inactive: 22.4%
CCC(C)c1ccccc1NC(=O)c1cc(C)no1 (stereo not drawn) | inactive: -1.39%
O=C(NCc1ccccc1)N(Cc1cc2cc3c(cc2[nH]c1=O)OCCO3)CC1CCCO1 (stereo not drawn) | inactive: 8.89%
O=C(NCCc1ccc2c(c1)OCCO2)c1ccc(F)cc1 | inactive: -23.2%
NC(=O)c1ccccc1NC(=O)c1ccccc1S(=O)(=O)c1ccccc1[N+](=O)[O-] | inactive: 13.6%
COc1ccc(Br)cc1C(=O)Nc1ccc(-c2nc3cc(Cl)ccc3o2)cc1 | inactive: 14.9%
Cn1c(=O)[nH]c(=O)c2c1nc(N1CCN(CCO)CC1)n2Cc1ccccc1 | inactive: -16.7%
Cn1cccc1CC(=O)NNC(=S)Nc1ccc(F)cc1 | inactive: 11.1%
Cc1ccc(NC(=O)CN(C)C(=O)C2COc3ccccc3O2)cc1 (stereo not drawn) | inactive: 22.6%
COCC(=O)OC/C(O)=C(\C#N)c1nc2ccccc2[nH]1 | inactive: -10.6%
Cc1ccc(C)c(Cn2nnc3c(=O)[nH]c(C4CCN(C(=O)c5ccco5)CC4)nc32)c1 | inactive: 17.1%
O=C(Cc1cc(=O)oc2cc(O)ccc12)NC(Cc1ccc(Cl)cc1)C(=O)O (stereo not drawn) | inactive: 0.656%
COc1ccccc1NS(=O)(=O)c1ccc(O)c(NC(=S)NCC2CCCO2)c1 (stereo not drawn) | inactive: 21.8%
CC1CN(C(=S)Nc2ccc(SC(F)F)cc2)CC(C)O1 (stereo not drawn) | inactive: 18%
O=C(NCc1ccc(F)cc1)c1c2c(nc3ccccc13)CCN(Cc1ccccc1)C2 | inactive: 29.8%
CCNc1nc(NCC)n2c(SCC(=O)Nc3ccc(C(F)(F)F)cc3[N+](=O)[O-])nnc2n1 | inactive: 19.9%
CCOc1ccccc1N1CCN(C(=O)CNC(=O)c2ccccc2F)CC1 | inactive: 14.8%
Cc1nnc(SC(C)C(=O)NC2CCCCC2)[nH]c1=O (stereo not drawn) | inactive: -0.454%
O=S(=O)(c1ccc(C(F)(F)F)cc1)N1CCN(CCc2ccccc2)CC1 | inactive: -5.99%
O=C(Nc1nc2ccccc2[nH]1)c1ccc(OC(F)F)cc1 | inactive: -8.29%

SMILES | growth rescue (activation)
CCOC(=O)c1ccc(S(=O)(=O)N2CCN(CC(O)COc3ccc(C#N)cc3)CC2)cc1 (stereo not drawn) | inactive: -23.6%
CCC(C(=O)OCC(=O)NC(=O)NC(C)(C)C)c1ccccc1 (stereo not drawn) | inactive: 1.4%
CCCN(CCC)CCCNC(=O)Cn1cnc2sc(C)c(S(=O)(=O)N3CCOCC3)c2c1=O | inactive: 10%
COCCNC(=O)Cn1cc(C(=S)N2CCCCC2)c2ccccc21 | inactive: 24.7%
COc1cc(/C=C2\SC(=S)N(NC(=O)c3ccccc3O)C2=O)ccc1O | inactive: -9.24%
O=C(NNc1ccccc1)C(=O)N1CCCCC1 | inactive: 15.7%
Cc1[nH]c2ccccc2c1/C=N/NC(N)=S | inactive: 3.04%
CCn1c2ccccc2c2cc(NC(=O)COc3ccccc3)ccc21 | inactive: -4.15%
O=C(NCCc1cccnc1)C1CCC(=O)N(Cc2cccc(C(F)(F)F)c2)C1 (stereo not drawn) | inactive: 6.49%
Cc1cc(C)n2cnnc2n1 | inactive: -2.27%
COc1cc(-c2cc(C(=O)Nc3cc(S(=O)(=O)N4CCOCC4)ccc3O)c3ccccc3n2)cc(OC)c1OC | inactive: 15.6%
COc1ccc(C(=O)N2CCCCC2c2cc(C(=O)NCc3ccccc3)no2)cc1 (stereo not drawn) | inactive: -2.14%
COc1ccc(C(=O)OCC(=O)NC2CCCC2)c(OC)c1OC | inactive: -5.53%
CC(=O)Nc1nnc(SCC(=O)NC2CCCC2)s1 | inactive: -10.4%
Cc1cc(-c2nnc(CCC(=O)NC(Cc3ccccc3)c3ccccc3)o2)no1 (stereo not drawn) | inactive: 12%
CCOc1cc2ccccc2cc1C(=O)Nc1ccccn1 | inactive: -6.08%
COc1ccccc1NS(=O)(=O)c1cc(NC(=O)Cc2n[nH]c(=O)c3ccccc23)ccc1Cl | inactive: 14.9%
O=C(O)c1cccc(S(=O)(=O)N2CCN(C(c3ccccc3)c3ccccc3)CC2)c1 | inactive: -2.08%
O=C(CN1CCN(c2ccccc2F)CC1)c1ccc(O)c(O)c1 | inactive: -19.3%
N=c1oc2ccc(Br)cc2cc1C(=O)NCc1ccccc1 | inactive: -4.85%
